Measured values published in the supplement of paper PMC8728848.
This is one part of the list.

Tests used:
Test in all cases: glycan array binding signal (z-score within array); higher = stronger binding
Conditions in all cases: glycan notation: IUPAC condensed, linker removed
Fuc(a1-2)Gal = target: Fuc(a1-2)Gal
Procedure, shortened: (§1)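 Columns mapping to the same glycan were averaged after glycan names were converted to IUPAC-condensed notation. The data come from 3228 arrays in the Consortium for Functional Glycomics database, limited to those with an available protein sequence. Binding is reported as a within-array Z-score averaged across arrays of one protein sequence and across linkers.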

Fuc(a1-2)Gal(b1-3)GalNAc = target: Fuc(a1-2)Gal(b1-3)GalNAc
Procedure, shortened: as §1

[1] = target: Fuc(a1-2)Gal(b1-3)GalNAc(a1-3)[Fuc(a1-2)]Gal(b1-4)Glc
Procedure, shortened: as §1

[2] = target: Fuc(a1-2)Gal(b1-3)GalNAc(a1-3)[Fuc(a1-2)]Gal(b1-4)GlcNAc
Procedure, shortened: as §1

[3] = target: Fuc(a1-2)Gal(b1-3)GalNAc(b1-3)Gal
Procedure, shortened: as §1

[4] = target: Fuc(a1-2)Gal(b1-3)GalNAc(b1-3)Gal(a1-4)Gal(b1-4)Glc
Procedure, shortened: as §1

[5] = target: Fuc(a1-2)Gal(b1-3)GalNAc(b1-4)[Neu5Ac(a2-3)]Gal(b1-4)Glc
Procedure, shortened: as §1

Fuc(a1-2)Gal(b1-3)GlcNAc = target: Fuc(a1-2)Gal(b1-3)GlcNAc
Procedure, shortened: as §1

[6] = target: Fuc(a1-2)Gal(b1-3)GlcNAc(b1-2)Man(a1-3)[Fuc(a1-2)Gal(b1-3)GlcNAc(b1-2)Man(a1-6)]Man(b1-4)GlcNAc(b1-4)GlcNAc
Procedure, shortened: as §1

[7] = target: Fuc(a1-2)Gal(b1-3)GlcNAc(b1-2)Man(a1-3)[Fuc(a1-2)Gal(b1-3)GlcNAc(b1-2)Man(a1-6)]Man(b1-4)GlcNAc(b1-4)[Fuc(a1-6)]GlcNAc
Procedure, shortened: as §1

[8] = target: Fuc(a1-2)Gal(b1-3)GlcNAc(b1-3)Gal(b1-4)Glc
Procedure, shortened: as §1

[9] = target: Fuc(a1-2)Gal(b1-3)GlcNAc(b1-3)GalNAc
Procedure, shortened: as §1

[10] = target: Fuc(a1-2)Gal(b1-3)GlcNAc(b1-3)[Fuc(a1-2)Gal(b1-3)GlcNAc(b1-6)]GalNAc
Procedure, shortened: as §1

[11] = target: Fuc(a1-2)Gal(b1-3)GlcNAc(b1-3)[Gal(b1-4)GlcNAc(b1-6)]Gal(b1-4)Glc
Procedure, shortened: as §1

[12] = target: Fuc(a1-2)Gal(b1-3)GlcNAc(b1-3)[Neu5Ac(a2-6)Gal(b1-4)GlcNAc(b1-6)]Gal(b1-4)Glc
Procedure, shortened: as §1

[13] = target: Fuc(a1-2)Gal(b1-3)GlcNAc6S
Procedure, shortened: as §1

[14] = target: Fuc(a1-2)Gal(b1-3)[Fuc(a1-4)]GlcNAc
Procedure, shortened: as §1

[15] = target: Fuc(a1-2)Gal(b1-3)[Fuc(a1-4)]GlcNAc(b1-2)Man(a1-3)[Fuc(a1-2)Gal(b1-3)[Fuc(a1-4)]GlcNAc(b1-2)Man(a1-3)]Man(b1-4)GlcNAc(b1-4)GlcNAc
Procedure, shortened: as §1

[16] = target: Fuc(a1-2)Gal(b1-3)[Fuc(a1-4)]GlcNAc(b1-2)Man(a1-3)[Fuc(a1-2)Gal(b1-3)[Fuc(a1-4)]GlcNAc(b1-2)Man(a1-6)]Man(b1-4)GlcNAc(b1-4)[Fuc(a1-6)]GlcNAc(b1-4)[Fuc(a1-6)]GlcNAc
Procedure, shortened: as §1

[17] = target: Fuc(a1-2)Gal(b1-3)[Fuc(a1-4)]GlcNAc(b1-3)[Fuc(a1-3)[Gal(b1-4)]GlcNAc(b1-6)]Gal(b1-4)Glc
Procedure, shortened: as §1

[18] = target: Fuc(a1-2)Gal(b1-3)[Fuc(a1-4)]GlcNAc(b1-3)[Gal(b1-4)GlcNAc(b1-6)]Gal(b1-4)Glc
Procedure, shortened: as §1

Fuc(a1-2)Gal(b1-4)Glc = target: Fuc(a1-2)Gal(b1-4)Glc
Procedure, shortened: as §1

Fuc(a1-2)Gal(b1-4)Glc6S = target: Fuc(a1-2)Gal(b1-4)Glc6S
Procedure, shortened: as §1

Fuc(a1-2)Gal(b1-4)GlcNAc = target: Fuc(a1-2)Gal(b1-4)GlcNAc
Procedure, shortened: as §1

[19] = target: Fuc(a1-2)Gal(b1-4)GlcNAc(b1-2)Man
Procedure, shortened: as §1

[20] = target: Fuc(a1-2)Gal(b1-4)GlcNAc(b1-2)Man(a1-3)[Fuc(a1-2)Gal(b1-4)GlcNAc(b1-2)Man(a1-6)]Man(b1-4)GlcNAc(b1-4)GlcNAc
Procedure, shortened: as §1

[21] = target: Fuc(a1-2)Gal(b1-4)GlcNAc(b1-2)Man(a1-3)[Fuc(a1-2)Gal(b1-4)GlcNAc(b1-2)Man(a1-6)]Man(b1-4)GlcNAc(b1-4)[Fuc(a1-6)]GlcNAc
Procedure, shortened: as §1

[22] = target: Fuc(a1-2)Gal(b1-4)GlcNAc(b1-2)[Fuc(a1-2)Gal(b1-4)GlcNAc(b1-4)]Man(a1-3)[Fuc(a1-2)Gal(b1-4)GlcNAc(b1-2)Man(a1-6)]Man(b1-4)GlcNAc(b1-4)GlcNAc
Procedure, shortened: as §1

[23] = target: Fuc(a1-2)Gal(b1-4)GlcNAc(b1-3)Gal(b1-4)GlcNAc
Procedure, shortened: as §1

[24] = target: Fuc(a1-2)Gal(b1-4)GlcNAc(b1-3)Gal(b1-4)GlcNAc(b1-2)Man(a1-3)[Fuc(a1-2)Gal(b1-4)GlcNAc(b1-3)Gal(b1-4)GlcNAc(b1-2)Man(a1-6)]Man(b1-4)GlcNAc(b1-4)GlcNAc
Procedure, shortened: as §1

[25] = target: Fuc(a1-2)Gal(b1-4)GlcNAc(b1-3)Gal(b1-4)GlcNAc(b1-3)Gal(b1-4)GlcNAc
Procedure, shortened: as §1

[26] = target: Fuc(a1-2)Gal(b1-4)GlcNAc(b1-3)GalNAc
Procedure, shortened: as §1

[27] = target: Fuc(a1-2)Gal(b1-4)GlcNAc(b1-3)[Fuc(a1-2)Gal(b1-4)GlcNAc(b1-6)]GalNAc
Procedure, shortened: as §1

[28] = target: Fuc(a1-2)Gal(b1-4)GlcNAc(b1-3)[Fuc(a1-3)[Gal(b1-4)]GlcNAc(b1-6)]Gal(b1-4)Glc
Procedure, shortened: as §1

[29] = target: Fuc(a1-2)Gal(b1-4)GlcNAc(b1-6)GalNAc
Procedure, shortened: as §1

[30] = target: Fuc(a1-2)Gal(b1-4)GlcNAc6S
Procedure, shortened: as §1

[31] = target: Fuc(a1-2)Gal(b1-4)[Fuc(a1-3)]GlcNAc
Procedure, shortened: as §1

[32] = target: Fuc(a1-2)Gal(b1-4)[Fuc(a1-3)]GlcNAc(b1-2)Man(a1-3)[Fuc(a1-2)Gal(b1-4)[Fuc(a1-3)]GlcNAc(b1-2)Man(a1-6)]Man(b1-4)GlcNAc(b1-4)[Fuc(a1-6)]GlcNAc
Procedure, shortened: as §1

[33] = target: Fuc(a1-2)Gal(b1-4)[Fuc(a1-3)]GlcNAc(b1-2)[Fuc(a1-2)Gal(b1-4)[Fuc(a1-3)]GlcNAc(b1-4)]Man(a1-3)[Fuc(a1-2)Gal(b1-4)[Fuc(a1-3)]GlcNAc(b1-2)Man(a1-6)]Man(b1-4)GlcNAc(b1-4)GlcNAc
Procedure, shortened: as §1

[34] = target: Fuc(a1-2)Gal(b1-4)[Fuc(a1-3)]GlcNAc(b1-3)Gal(b1-4)[Fuc(a1-3)]GlcNAc
Procedure, shortened: as §1

[35] = target: Fuc(a1-2)Gal(b1-4)[Fuc(a1-3)]GlcNAc(b1-3)Gal(b1-4)[Fuc(a1-3)]GlcNAc(b1-3)Gal(b1-4)[Fuc(a1-3)]GlcNAc
Procedure, shortened: as §1

[36] = target: Fuc(a1-2)Gal(b1-4)[Fuc(a1-3)]GlcNAc(b1-3)GalNAc
Procedure, shortened: as §1

[37] = target: Fuc(a1-2)Gal(b1-4)[Fuc(a1-3)]GlcNAc(b1-3)[Neu5Ac(a2-6)Gal(b1-4)GlcNAc(b1-6)]Gal(b1-4)Glc
Procedure, shortened: as §1

[38] = target: Fuc(a1-2)Gal3S(b1-4)GlcNAc
Procedure, shortened: as §1

[39] = target: Fuc(a1-2)Gal6S(b1-3)GlcNAc
Procedure, shortened: as §1

B1: Pa IMPa (Pseudomonas aeruginosa), Q9I5W4 (protein)
chain: MSLSTTAFPSLQGENMSRSPIPRHRALLAGFCLAGALSAQAATQEEILDAALVSGDSSQLTDSHLVALRLQQQVERIRQTRTQLLDGLYQNLSQAYDPGAASMWVLPANPDNTLPFLIGDKGRVLASLSLEAGGRGLAYGTNVLTQLSGTNAAHAPLLKRAVQWLVNGDPGAATAKDFKVSVVGVDKTAALNGLKSAGLQPADAACNALTDASCASTSKLLVLGNGASAASLSATVRARLQAGLPILFVHTNGWNQSSTGQQILAGLGLQEGPYGGNYWDKDRVPSSRTRTRSVELGGAYGQDPALVQQIVDGSWRTDYDWSKCTSYVGRTTCDDVPGLSDFSKRVDVLKGALDAYNQKAQNLFALPGTTSLRLWLLWADAVRQNIRYPMDKAADTARFQETFVADAIVGYVREAGAAQKELGSYAGQRQQSMPVSGSEETLTLTLPSAQGFTAIGRMAAPGKRLSIRIEDAGQASLAVGLNTQRIGSTRLWNTRQYDRPRFLKSPDIKLQANQSVALVSPYGGLLQLVYSGATPGQTVTVKVTGAASQPFLDIQPGEDSSQAIADFIQALDADKADWLEIRSGSVEVHAKVEKVRGSIDKDYGGDVQRFIRELNEVFIDDAYTLAGFAIPNQAKTPAIQQECAARGWDCDSETLHKLPGTQHINVDQYAQCGGGCSGNPYDQTWGLNPRGWGESHELGHNLQVNRLKVYGGRSGEISNQIFPLHKDWRVLREFGQNLDDTRVNYRNAYNLIVAGRAEADPLAGVYKRLWEDPGTYALNGERMAFYTQWVHYWADLKNDPLQGWDIWTLLYLHQRQVDKSDWDANKAALGYGTYAQRPGNSGDASSTDGNDNLLLGLSWLTQRDQRPTFALWGIRTSAAAQAQVAAYGFAEQPAFFYANNRTNEYSTVKLLDMSQGSPAWPFP
glycan array binding signal (z-score) (Fuc(a1-2)Gal): -0.235
glycan array binding signal (z-score) (Fuc(a1-2)Gal(b1-3)GalNAc): -0.198
glycan array binding signal (z-score) [1]: -0.49
glycan array binding signal (z-score) [2]: -0.027
glycan array binding signal (z-score) [3]: 0.398
glycan array binding signal (z-score) [4]: 0.225
glycan array binding signal (z-score) [5]: -0.354
glycan array binding signal (z-score) (Fuc(a1-2)Gal(b1-3)GlcNAc): -0.318
glycan array binding signal (z-score) [6]: -0.426
glycan array binding signal (z-score) [7]: 0.41
glycan array binding signal (z-score) [8]: 0.384
glycan array binding signal (z-score) [9]: 0.19
glycan array binding signal (z-score) [10]: -0.057
glycan array binding signal (z-score) [11]: -0.248
glycan array binding signal (z-score) [12]: 0.272
glycan array binding signal (z-score) [13]: -0.327
glycan array binding signal (z-score) [14]: -0.558
glycan array binding signal (z-score) [15]: 0.633
glycan array binding signal (z-score) [16]: 0.203
glycan array binding signal (z-score) [17]: 0.631
glycan array binding signal (z-score) [18]: -0.597
glycan array binding signal (z-score) (Fuc(a1-2)Gal(b1-4)Glc): 0.197
glycan array binding signal (z-score) (Fuc(a1-2)Gal(b1-4)Glc6S): -0.308
glycan array binding signal (z-score) (Fuc(a1-2)Gal(b1-4)GlcNAc): -0.264
glycan array binding signal (z-score) [19]: -0.136
glycan array binding signal (z-score) [20]: -0.12
glycan array binding signal (z-score) [21]: -0.011
glycan array binding signal (z-score) [22]: -0.167
glycan array binding signal (z-score) [23]: -0.125
glycan array binding signal (z-score) [24]: 0.167
glycan array binding signal (z-score) [25]: 0.501
glycan array binding signal (z-score) [26]: 0.047
glycan array binding signal (z-score) [27]: -0.151
glycan array binding signal (z-score) [28]: 0.221
glycan array binding signal (z-score) [29]: -0.289
glycan array binding signal (z-score) [30]: -0.485
glycan array binding signal (z-score) [31]: -0.138
glycan array binding signal (z-score) [32]: -0.357
glycan array binding signal (z-score) [33]: -0.153
glycan array binding signal (z-score) [34]: 0.44
glycan array binding signal (z-score) [35]: 0.068
glycan array binding signal (z-score) [36]: -0.373
glycan array binding signal (z-score) [37]: 0.266
glycan array binding signal (z-score) [38]: 0.12
glycan array binding signal (z-score) [39]: 0.048
